# This is one part of the list.
# B1: Gal 1 (Mus musculus), P16045 (protein)
# chain: MACGLVASNLNLKPGECLKVRGEVASDAKSFVLNLGKDSNNLCLHFNPRFNAHGDANTIVCNTKEDGTWGTEHREPAFPFQPGSITEVCITFDQADLTIKLPDGHEFKFPNRLNMEAINYMAADGDFKIKCVAFE
# What was measured:
# Test in all cases: glycan array binding signal (z-score within array); higher = stronger binding
# Conditions in all cases: glycan notation: IUPAC condensed, linker removed
# Fuc(a1-2)Gal = biological target: Fuc(a1-2)Gal
# In short: (§1)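 Arrays were curated from the Consortium for Functional Glycomics database, 3228 in total, and kept only where the protein sequence was available. Binding is expressed as a within-array Z-score. This score was averaged across arrays of the same protein sequence at different concentrations or buffers and across linkers, and negative values can be read as non-binding.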
# Fuc(a1-2)Gal(b1-3)GalNAc = biological target: Fuc(a1-2)Gal(b1-3)GalNAc
# In short: as §1
# [1] = biological target: Fuc(a1-2)Gal(b1-3)GalNAc(a1-3)[Fuc(a1-2)]Gal(b1-4)Glc
# In short: as §1
# [2] = biological target: Fuc(a1-2)Gal(b1-3)GalNAc(a1-3)[Fuc(a1-2)]Gal(b1-4)GlcNAc
# In short: as §1
# [3] = biological target: Fuc(a1-2)Gal(b1-3)GalNAc(b1-3)Gal
# In short: as §1
# [4] = biological target: Fuc(a1-2)Gal(b1-3)GalNAc(b1-3)Gal(a1-4)Gal(b1-4)Glc
# In short: as §1
# [5] = biological target: Fuc(a1-2)Gal(b1-3)GalNAc(b1-4)[Neu5Ac(a2-3)]Gal(b1-4)Glc
# In short: as §1
# Fuc(a1-2)Gal(b1-3)GlcNAc = biological target: Fuc(a1-2)Gal(b1-3)GlcNAc
# In short: as §1
# [6] = biological target: Fuc(a1-2)Gal(b1-3)GlcNAc(b1-2)Man(a1-3)[Fuc(a1-2)Gal(b1-3)GlcNAc(b1-2)Man(a1-6)]Man(b1-4)GlcNAc(b1-4)GlcNAc
# In short: as §1
# [7] = biological target: Fuc(a1-2)Gal(b1-3)GlcNAc(b1-2)Man(a1-3)[Fuc(a1-2)Gal(b1-3)GlcNAc(b1-2)Man(a1-6)]Man(b1-4)GlcNAc(b1-4)[Fuc(a1-6)]GlcNAc
# In short: as §1
# [8] = biological target: Fuc(a1-2)Gal(b1-3)GlcNAc(b1-3)Gal(b1-4)Glc
# In short: as §1
# [9] = biological target: Fuc(a1-2)Gal(b1-3)GlcNAc(b1-3)GalNAc
# In short: as §1
# [10] = biological target: Fuc(a1-2)Gal(b1-3)GlcNAc(b1-3)[Fuc(a1-2)Gal(b1-3)GlcNAc(b1-6)]GalNAc
# In short: as §1
# [11] = biological target: Fuc(a1-2)Gal(b1-3)GlcNAc(b1-3)[Fuc(a1-3)[Gal(b1-4)]GlcNAc(b1-6)]Gal(b1-4)Glc
# In short: as §1
# [12] = biological target: Fuc(a1-2)Gal(b1-3)GlcNAc(b1-3)[Gal(b1-4)GlcNAc(b1-6)]Gal(b1-4)Glc
# In short: as §1
# [13] = biological target: Fuc(a1-2)Gal(b1-3)GlcNAc(b1-3)[Neu5Ac(a2-6)Gal(b1-4)GlcNAc(b1-6)]Gal(b1-4)Glc
# In short: as §1
# [14] = biological target: Fuc(a1-2)Gal(b1-3)GlcNAc6S
# In short: as §1
# [15] = biological target: Fuc(a1-2)Gal(b1-3)[Fuc(a1-4)]GlcNAc
# In short: as §1
# [16] = biological target: Fuc(a1-2)Gal(b1-3)[Fuc(a1-4)]GlcNAc(b1-2)Man(a1-3)[Fuc(a1-2)Gal(b1-3)[Fuc(a1-4)]GlcNAc(b1-2)Man(a1-3)]Man(b1-4)GlcNAc(b1-4)GlcNAc
# In short: as §1
# [17] = biological target: Fuc(a1-2)Gal(b1-3)[Fuc(a1-4)]GlcNAc(b1-2)Man(a1-3)[Fuc(a1-2)Gal(b1-3)[Fuc(a1-4)]GlcNAc(b1-2)Man(a1-6)]Man(b1-4)GlcNAc(b1-4)GlcNAc
# In short: as §1
# [18] = biological target: Fuc(a1-2)Gal(b1-3)[Fuc(a1-4)]GlcNAc(b1-2)Man(a1-3)[Fuc(a1-2)Gal(b1-3)[Fuc(a1-4)]GlcNAc(b1-2)Man(a1-6)]Man(b1-4)GlcNAc(b1-4)[Fuc(a1-6)]GlcNAc(b1-4)[Fuc(a1-6)]GlcNAc
# In short: as §1
# [19] = biological target: Fuc(a1-2)Gal(b1-3)[Fuc(a1-4)]GlcNAc(b1-3)[Fuc(a1-3)[Gal(b1-4)]GlcNAc(b1-6)]Gal(b1-4)Glc
# In short: as §1
# [20] = biological target: Fuc(a1-2)Gal(b1-3)[Fuc(a1-4)]GlcNAc(b1-3)[Gal(b1-4)GlcNAc(b1-6)]Gal(b1-4)Glc
# In short: as §1
# [21] = biological target: Fuc(a1-2)Gal(b1-4)Fuc(a1-3)]GlcNAc(b1-2)Man(a1-3)[Fuc(a1-2)Gal(b1-4)[Fuc(a1-3)]GlcNAc(b1-2)Man(a1-6)]Man(b1-4)GlcNAc(b1-4)GlcNAc
# In short: as §1
# Fuc(a1-2)Gal(b1-4)Glc = biological target: Fuc(a1-2)Gal(b1-4)Glc
# In short: as §1
# Fuc(a1-2)Gal(b1-4)Glc6S = biological target: Fuc(a1-2)Gal(b1-4)Glc6S
# In short: as §1
# Fuc(a1-2)Gal(b1-4)GlcNAc = biological target: Fuc(a1-2)Gal(b1-4)GlcNAc
# In short: as §1
# [22] = biological target: Fuc(a1-2)Gal(b1-4)GlcNAc(b1-2)Man
# In short: as §1
# [23] = biological target: Fuc(a1-2)Gal(b1-4)GlcNAc(b1-2)Man(a1-3)[Fuc(a1-2)Gal(b1-4)GlcNAc(b1-2)Man(a1-6)]Man(b1-4)GlcNAc(b1-4)GlcNAc
# In short: as §1
# [24] = biological target: Fuc(a1-2)Gal(b1-4)GlcNAc(b1-2)Man(a1-3)[Fuc(a1-2)Gal(b1-4)GlcNAc(b1-2)Man(a1-6)]Man(b1-4)GlcNAc(b1-4)[Fuc(a1-6)]GlcNAc
# In short: as §1
binder,measurement,setting,value
B1,glycan array binding signal (z-score),Fuc(a1-2)Gal,-0.375
same,glycan array binding signal (z-score),Fuc(a1-2)Gal(b1-3)GalNAc,-0.319
same,glycan array binding signal (z-score),[1],-0.352
same,glycan array binding signal (z-score),[2],-0.265
same,glycan array binding signal (z-score),[3],-0.273
same,glycan array binding signal (z-score),[4],-0.358
same,glycan array binding signal (z-score),[5],-0.1
same,glycan array binding signal (z-score),Fuc(a1-2)Gal(b1-3)GlcNAc,-0.194
same,glycan array binding signal (z-score),[6],0.069
same,glycan array binding signal (z-score),[7],-0.268
same,glycan array binding signal (z-score),[8],-0.229
same,glycan array binding signal (z-score),[9],-0.317
same,glycan array binding signal (z-score),[10],0.022
same,glycan array binding signal (z-score),[11],0.075
same,glycan array binding signal (z-score),[12],-0.005
same,glycan array binding signal (z-score),[13],0.017
same,glycan array binding signal (z-score),[14],0.093
same,glycan array binding signal (z-score),[15],-0.058
same,glycan array binding signal (z-score),[16],0.655
same,glycan array binding signal (z-score),[17],0.007
same,glycan array binding signal (z-score),[18],0.125
same,glycan array binding signal (z-score),[19],-0.357
same,glycan array binding signal (z-score),[20],-0.128
same,glycan array binding signal (z-score),[21],0.7
same,glycan array binding signal (z-score),Fuc(a1-2)Gal(b1-4)Glc,-0.118
same,glycan array binding signal (z-score),Fuc(a1-2)Gal(b1-4)Glc6S,-0.241
same,glycan array binding signal (z-score),Fuc(a1-2)Gal(b1-4)GlcNAc,-0.279
same,glycan array binding signal (z-score),[22],-0.323
same,glycan array binding signal (z-score),[23],0.532
same,glycan array binding signal (z-score),[24],0.1
